Screen size: about 110,000 compounds; about 230 (0.21%) showed an effect of 50% or more. The list shows a part of the results.
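Further: 30 min substrate incubation versus DMSO and 10 µM JCP410 controls.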

The assay deals with DPAP1 (Plasmodium falciparum, UniProt Q8IIJ9). Put plainly: primary screen, percent inhibition; read by cleavage of a fluorogenic dipeptide substrate; higher = more effect of the substance. More on the design: species or system P. falciparum D10 trophozoite lysates; single well.
Chain of DPAP1 (Q8IIJ9 whole entry, looked up): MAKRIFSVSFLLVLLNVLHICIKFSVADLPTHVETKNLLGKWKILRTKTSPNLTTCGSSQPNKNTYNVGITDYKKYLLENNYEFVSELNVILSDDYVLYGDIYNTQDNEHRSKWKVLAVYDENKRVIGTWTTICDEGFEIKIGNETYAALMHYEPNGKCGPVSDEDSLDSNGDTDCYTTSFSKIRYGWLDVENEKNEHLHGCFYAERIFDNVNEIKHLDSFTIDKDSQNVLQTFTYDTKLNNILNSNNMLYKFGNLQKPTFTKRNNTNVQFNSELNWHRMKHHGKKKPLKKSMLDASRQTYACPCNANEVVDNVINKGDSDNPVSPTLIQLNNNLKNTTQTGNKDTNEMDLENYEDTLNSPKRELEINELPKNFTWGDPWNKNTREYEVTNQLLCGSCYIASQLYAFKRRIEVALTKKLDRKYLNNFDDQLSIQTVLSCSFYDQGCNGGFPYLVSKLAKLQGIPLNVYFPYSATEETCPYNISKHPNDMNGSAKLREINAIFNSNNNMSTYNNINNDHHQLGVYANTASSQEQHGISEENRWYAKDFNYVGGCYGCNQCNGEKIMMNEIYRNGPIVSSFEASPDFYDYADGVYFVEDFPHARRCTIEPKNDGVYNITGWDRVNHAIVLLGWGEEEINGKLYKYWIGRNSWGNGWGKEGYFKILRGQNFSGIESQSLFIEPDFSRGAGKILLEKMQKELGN
With `C=CCOc1ccc(/C=C2\Sc3ccccc3C2=O)cc1`, the “% Inhibition @ 10 uM” value was -1.37%.
The figure for `CC(=O)N1CCC(NC2CCCc3ccccc32)CC1` (stereo not drawn) is 3.48%; for `CN1CCN(c2nc3c(c(=O)[nH]c(=O)n3C)n2Cc2cccc(Br)c2)CC1` it is -3.37%.
The result for `O=C(c1ccc2c(c1)ncn2C1CCCCC1)N1CCN(Cc2ccccc2)CC1` reads 4.81%; that for `CN1CCN(c2ncnc3c2cnn3Cc2ccc(Cl)cc2Cl)CC1`, 2.16%.
The result for `CN(C)CCOC1COCc2ccccc21` (stereo not drawn) reads 4.22%.
In the case of `COc1cc2c(cc1OC)C(Cc1cccc(OC)c1OC)C(=O)N(C)CC2` (stereo not drawn), the “% Inhibition @ 10 uM” value is given as -0.773%.
The result for `CCCCCC(=O)Nc1ccc(NC(=O)CC)cc1` reads -2.24%; that for `O=C(Nc1nonc1NC(=O)c1ccccc1)c1ccccc1`, 1.54%.
The figure for `O=C(O)c1cnn2c(C(F)(F)F)cc(-c3cccs3)nc12` is 3.76%.
The figure for `COc1cccc(/C=C/c2nc(C#N)c(NCc3ccccc3)o2)c1` is 0.895%; for `O=C(CC1Sc2ccccc2NC1=O)Nc1ccc(C(F)(F)F)cc1` (stereo not drawn) it is -3.93%; for `O=C(O)CCCn1sc2ccccc2c1=O` it is 3.04%.
As for `Cc1cccc(C)c1-n1c(C)cc(/C=C2\C(=N)N3N=C(S(C)(=O)=O)SC3=NC2=O)c1C`, the “% Inhibition @ 10 uM” value worked out at 5.1%.
For `O=C(O)c1ccccc1N1C(=O)c2ccc(Oc3ccc([N+](=O)[O-])cc3)cc2C1=O`, the “% Inhibition @ 10 uM” value is -3.16%.
In the case of `CCN(CN1C(=O)c2ccccc2C1=O)c1ccccc1`, the “% Inhibition @ 10 uM” value came out at 1.96%.
Regarding `COc1cccc(CNCc2c(C(=O)O)n(C)c3ccccc23)c1`, the “% Inhibition @ 10 uM” value is listed as 1.93%.
The result for `CC1=NOC(=O)/C1=C\C=C/c1ccccc1` reads -5.2%; that for `CC(=O)c1c(OCc2ccccc2)ccc2c(C)cc(=O)oc12`, 0.778%; that for `O=C(c1ccccc1F)N1CCN(c2ccc(F)cc2)CC1`, 1.43%.
The result for `COC(=O)c1c(NC(=O)C(C)Oc2ccc(C)c(C)c2)sc2c1CCCC2` (stereo not drawn) reads -1.1%.
With `Cc1ccc(C2c3c(oc4ccccc4c3=O)C(=O)N2c2nnc(C(C)C)s2)o1` (stereo not drawn), the “% Inhibition @ 10 uM” value is 7.65%.
The figure for `CC1CCN(c2nc3ccc(C(=O)NCCN(C)C4CCCCC4)cc3s2)CC1` is -0.637%; for `CCN(Cc1ccccc1)C(=O)COc1ccc(Cl)cc1Cl` it is 3.21%; for `COc1ccc(CNC(=O)C2(S(=O)(=O)c3ccc(Cl)cc3)CC2)cc1` it is -4.53%.
Consider `CCCC(=O)/N=C(\N)Nc1nc(C)c2cc(C)ccc2n1`, for which the “% Inhibition @ 10 uM” value was 0.687%.
The figure for `COC(=O)c1ccc(Cn2c(=O)cc(-c3ccccc3)c3c(C)nn(C)c32)cc1` is -0.441%; for `Cc1cccc(CS(=O)(=O)Cc2ccc(C(=O)NCCCN3CCCCCC3)o2)c1` it is -0.971%; for `COc1ccccc1CN1CCN(S(=O)(=O)c2ccc(Cl)cc2)CC1` it is 2.06%.
As to `CC(=O)Nc1ccc(S(=O)(=O)Nc2ccc(C)cc2)cc1`, the “% Inhibition @ 10 uM” value stood at 5.03%.
Regarding `CC(=O)Nc1ccc(NC(=O)C2CCN(C(=O)c3ccc(C(C)(C)C)cc3)CC2)cc1`, the “% Inhibition @ 10 uM” value turned out to be 6.65%.
The figure for `CCNc1nc(SCC(=O)Nc2ccc(Cl)c(Cl)c2)nc(N2CCOCC2)n1` is -5.1%; for `CC1CCN(S(=O)(=O)c2ccc(NC(=O)C(C)(C)C)cc2)CC1` it is -6.17%; for `CC1=CC(C)C2COC(c3ccccc3O)C1C2` (stereo not drawn) it is 4.35%.
The figure for `CCCc1ncc(C(=O)c2ccc(OC)cc2)n1C` is -3.35%; for `O=C(NC(c1ccccc1)c1ccccc1)C1CCN(c2ncccn2)CC1` it is 2.41%.
The result for `CCCN1CCN(C(=O)c2sc3nc(C)cc(C)c3c2-n2cccc2)CC1` reads -1.08%; that for `CN(C)CCC(O)(c1ccccc1)c1cccnc1` (stereo not drawn), 1.54%.
For the compound `Cc1ccc(-c2cn3nc(N4CCC(C(=O)N5CCN(C)CC5)CC4)sc3n2)cc1`, the “% Inhibition @ 10 uM” value turned out to be 3.12%.
The result for `Cc1nnc2n1NC(c1ccc(Cl)cc1)C(C(=O)NCC1CCCO1)S2` (stereo not drawn) reads -13.6%; that for `COc1ccc(C(=O)Nc2ccc(Br)c(Cl)c2)cc1`, -1.28%.
The result for `CCN(CC)C1=N/C(=C\c2ccco2)C(=O)N1c1ccccc1` reads -2.8%.
`C=C(C)CNC(=S)NCc1ccccc1`: the “% Inhibition @ 10 uM” value is -3.44%.
The figure for `O=S1(=O)N=C(N2CCOCC2)c2ccccc21` is -0.591%; for `CNC(=O)Cn1cc(S(=O)(=O)Cc2cccc(Cl)c2)c2ccccc21` it is 2.25%.
For the compound `COc1ccccc1N1CCN(C2CC(=O)N(c3cccc(C)c3)C2=O)CC1` (stereo not drawn), the “% Inhibition @ 10 uM” value is -6.05%.
Take `Cc1ccc(-c2nnn3c2nc(NC(C)C)c2ccccc23)cc1`: the “% Inhibition @ 10 uM” value is -10.4%.
In the case of `COc1ccccc1-c1oc2ccc(C)cc2c(=O)c1O`, the “% Inhibition @ 10 uM” value was 0.0539%.
The figure for `COc1ccc2c(c1)CC/C(=C\c1ccc(OC)c(Cn3nc(C)cc3C)c1)C2=O` is 8.24%; for `COCCCn1c(SCC(=O)NCCC2=CCCCC2)nc2c(sc3ccccc32)c1=O` it is 7.26%; for `CCN(Cc1ccccc1)S(=O)(=O)c1ccc(Cl)cc1` it is 3.47%.
The result for `CCOCCCNc1ncnc2c1cnn2-c1ccc(C)cc1` reads 1.91%; that for `CCSc1ccc(-c2cccs2)nn1`, -0.256%.
The result for `O=C(NC(c1ccccc1)c1ccccc1)c1cccc(-n2cnnn2)c1` reads -4.56%; that for `Cc1ccccc1OCC(=O)Nc1nnc(S(=O)(=O)NCc2ccccc2)s1`, -1.72%; that for `CCNC(=O)c1ccc(C2SCC(=O)N2CCc2ccccc2)cc1` (stereo not drawn), -1.6%.
Consider `CC(=O)N1CN(S(=O)(=O)c2ccc(C)cc2)CC1C` (stereo not drawn), for which the “% Inhibition @ 10 uM” value was -5%.
As for `Cc1ccnc(NC(=O)c2cccc(S(=O)(=O)N3CCCCCC3)c2)c1`, the “% Inhibition @ 10 uM” value is given as 2.94%.
The result for `CC1CC(=O)C2=C(C1)OC(N)=C(C#N)C2c1ccc(F)cc1` (stereo not drawn) reads -3.72%.
`CC(C)CCNC(=O)CCS(=O)(=O)c1cccc2nonc12`: the “% Inhibition @ 10 uM” value was 1.26%.
For the compound `CC(C)(C)NS(=O)(=O)c1ccc(OCC(=O)Nc2ccc(Br)cc2F)cc1`, the “% Inhibition @ 10 uM” value was -1.82%.
The result for `Cc1cc(N)n(C2CCS(=O)(=O)C2)n1` (stereo not drawn) reads 8.49%; that for `Cc1ccccc1N1C(=O)/C(=C\c2c(C)[nH]c3ccccc23)C(=O)NC1=S`, 4.15%.
The result for `Cn1c(=O)c2c(nc(CN3CCC(C(N)=O)CC3)n2CCCc2ccccc2)n(C)c1=O` reads -1.65%.
The figure for `COCC(C)NC(=O)NC1(C(F)(F)F)Oc2cc(Cl)c(Cl)cc2O1` (stereo not drawn) is 6.57%; for `Cc1cc2nc(-c3c(O)nc4ccccc4c3O)[nH]c2cc1C` it is 6.86%.
`CC1(C)Cc2nc3ccccc3c(N)c2C(O)C1` (stereo not drawn): the “% Inhibition @ 10 uM” value is given as 0.266%.
As to `Cc1ccc(/C=C2/SC(=O)N(CC(=O)N3CCOCC3)C2=O)s1`, the “% Inhibition @ 10 uM” value is -4.39%.
On to `Cc1ccc(S(=O)(=O)NCCCC(=O)O)cc1`, for which the “% Inhibition @ 10 uM” value is reported as -1.29%.
The result for `O=c1c2c3c(sc2nc2c4ccccc4c(NCC4CCCO4)nn12)CCCC3` (stereo not drawn) reads 41.2%; that for `COc1cc(-c2nc3ccccc3s2)cc(Br)c1O`, 5.72%; that for `O=C(Cn1ncc2c3ccccc3n(Cc3ccccc3F)c2c1=O)NCC1CCCO1` (stereo not drawn), 0.137%.
The result for `Nc1ccc2nn(-c3cc([N+](=O)[O-])ccc3O)nc2c1` reads 2.13%; that for `CC(=O)NCCSc1nc(-c2cccs2)cc(-c2ccc(F)cc2)c1C#N`, 5.65%; that for `CC1=C(C(=O)OCc2ccc3c(c2)OCO3)C(c2ccc(Cl)cc2Cl)CC(=O)N1` (stereo not drawn), 5.86%.
The result for `COc1ccc(-c2[nH]nc3c2C(c2ccsc2)C(C#N)=C(N)O3)cc1` (stereo not drawn) reads 14.3%.
For `CCO/C(O)=C1/C(C)=Nc2ncnn2C1c1ccc(OC)c(O)c1` (stereo not drawn), the “% Inhibition @ 10 uM” value was -1.17%.
The result for `Cc1cc(Nc2ccc3c(c2)OCCO3)c2ccc(Cl)cc2n1` reads -3.49%; that for `COc1ccc(C(=O)c2cc(C#N)c3c4ccccc4ccn23)cc1OC`, -0.413%; that for `CCOC(=O)N1CCC(N2CCN(C/C=C/c3ccccc3)CC2)CC1`, -1.81%.
`CC(C)n1c(Oc2ccccc2Cl)nc2c1c(=O)n(C)c(=O)n2C`: the “% Inhibition @ 10 uM” value is given as 4.1%.
The result for `CCCCc1ccc(NC(=O)c2ccc(OC)c(OC)c2)cc1` reads -4.68%; that for `COc1ccc2c(CNCCc3ccc(Cl)cc3)c(C(=O)O)n(Cc3ccccc3C)c2c1`, -2.86%; that for `CCc1ccc(NS(=O)(=O)c2c(C)cc(C)cc2C)cc1`, -2.6%.
The result for `CCN(CC)CCn1c(NC(=O)C23CC4CC(C2)CC(n2cncn2)(C4)C3)nc2ccccc21` reads 6.68%; that for `COc1ccc(CN2CCN(c3ccccc3C)CC2)cc1C`, 1.48%; that for `OC(COc1ccc2ccccc2c1)CN1CCN(c2ccccc2)CC1` (stereo not drawn), 1.4%.
As to `Cn1c(SCc2nc(-c3cccs3)no2)nnc1-c1ccncc1`, the “% Inhibition @ 10 uM” value is recorded as -4.02%.
The result for `CCN(CC)CCOc1ccc(Br)cc1` reads -0.414%.
The figure for `CCc1nc2ccc(C(=O)NC3CCCc4ccccc43)cc2nc1CC` (stereo not drawn) is 1.95%; for `C=CCOC(=O)c1cccc(-c2ccc(/C=C3\C(=O)NC(=O)C(C#N)=C3C)o2)c1` it is 1.96%; for `CCN1CCN(Cc2cccc(Cl)c2)CC1` it is -1.92%.
In the case of `CCOC(=O)C1=C(N)OC2=C(C(=O)CCC2)C1c1ccc(F)cc1` (stereo not drawn), the “% Inhibition @ 10 uM” value was -0.771%.
On to `Cc1nn(CC(=O)N2CCC(N3CCCCC3)CC2)c(=O)c2cccn12`, for which the “% Inhibition @ 10 uM” value was -2.94%.
The result for `COC(=O)c1ccc(-c2ccncc2)s1` reads -2.39%; that for `O=C(CN1CCOCC1)C12CC3CC(CC(C3)C1)C2`, -6.2%.
The result for `COc1ccc(C2C(C(=O)Nc3cccnc3)=C(C)Nc3ncnn32)cc1` (stereo not drawn) reads -18.8%; that for `CCCS(=O)(=O)c1c(S(=O)(=O)CCC)c2cnccn2c1C(=O)c1ccc(C)cc1C`, 1.34%; that for `Cc1ccc(-c2[nH]nc3nc(-c4ccc(O)c(O)c4)cc(C(=O)O)c23)cc1`, -5.33%.
The figure for `CCOC(=O)c1sc(N2N=C(C)/C(=C\c3cc(C)n(-c4ccc5c(c4)OCO5)c3C)C2=O)nc1C` is 0.884%.
On to `COC(=O)C1=C(C)c2cc3c(cc2C1Cl)OCO3` (stereo not drawn), for which the “% Inhibition @ 10 uM” value is 4.61%.
The result for `CCOc1ccc(C(=O)C2=C(O)C(=O)N(CC3CCCO3)C2c2ccc(Cl)cc2)cc1` (stereo not drawn) reads -5.46%.

The record behind these values is paper PMC6919601, “Identification of Plasmodium dipeptidyl aminopeptidase allosteric inhibitors by high throughput screening” (PLoS ONE, 2019).
